Data: the supplement of paper PMC11417369
The list shows a part of the results.

System: PfAP2-HC AP2 domain (GST-tagged)
Experiment: gcPBM binding intensity (ln(normalized median fluorescence intensity)); higher = stronger DNA binding
How it was run: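 The binding buffer was 1× PBS containing 1% milk, 0.2 mg/ml BSA, 0.5% salmon testes DNA and 0.03% Triton X-100. In it, GST-tagged P. falciparum DNA-binding domains expressed in E. coli were applied for 1 h to an Agilent 4 × 180k array of primer-extended double-stranded 36-bp intergenic genomic probes plus negative controls. Binding intensity, read with Alexa488 anti-GST antibody and a 488 nm scan, is the highest Masliner-normalised natural-log median intensity across replicate spots of either probe orientation.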

Row | Sequence | gcPBM binding intensity (ln)
1 | AACGGGGGTAGTTTTATGCACACGTTTATTAATGCT [CACACA_site3173] | 9.85
2 | GATATGAATATAGGTTGTACTATATATAAAGTATGT [XGTACX_site1877] | 9.71
3 | TATATGTTAATTTTTTTTTTTTTTTTTTTTTTTATA [CACACA_negctrl_site62] | 9.26
4 | AAAGTACAAGTATAATCACACGTGTCTATTATATAC [CACACA_site4507] | 10.2
5 | ACATGAATTTATATGTGTACTAACTATATTCTTAAA [XGTACX_site5966] | 9.6
6 | TATCTGTATTTATTCACACATATAAAATATAATTAA [CACACA_site5560] | 9.28
7 | ATGAATAAATAGGTCACACACAAATATTTATAAATA [CACACA_site7186] | 10.2
8 | TCTGGCATATAATATTGTACACATATATATATATAT [XGTACX_site8182] | 9.99
9 | TATATACAATATAGGTGTACATTTTTTTATCTATTT [XGTACX_site8431] | 9.7
10 | ATAATGTTTTATAATACACACATTATATATATAAAT [CACACA_site6101] | 9.72
11 | GATTACAAAAAAAATACACACAAAAAAAAAAAGGAA [CACACA_site2096] | 10.3
12 | ATATTTATGTAAAAAAGTACATACAATTATATATGT [XGTACX_site3750] | 9.67
13 | AATATCTTAGTGGATACACACATATAAATGTGTATT [CACACA_site6367] | 9.82
14 | CTTTCAATTTTTTTCTGTACCAATAAAAAATATAAA [XGTACX_site2120] | 9.14
15 | TTGAGCATAAAATTTGGAAACCTCAATCGGACAAAA [GTGCAC_negctrl_site84] | 9.53
16 | CAACTCTTATTTAATTATATGAATTAATTTATATGA [CACACA_negctrl_site200] | 9.27
17 | TGCATAAATTTATGCACACATAAAAAAAAAAAAAAA [CACACA_site2923] | 9.62
18 | CATAAATGTCTCACATGTACATATGCATTTTTAAAA [XGTACX_site3194] | 9.45
19 | TATATATAATATTGCACACAAAATTAAAAGTAAATA [CACACA_site19] | 9.89
20 | ATTATTTTGTTTATTACATGCAGGTGTATATTACAG [TGCATGCA_site723] | 9.59
21 | GAGTATATTTATATTGCACACAATTTTTTTATTTTT [CACACA_site2644] | 9.93
22 | TTAAATACTAAAAAGTGTACACATACATAAAAAATT [XGTACX_site6261] | 9.77

Row | Sequence | gcPBM binding intensity (ln)
23 | ATTATGTTAATAATATGTACATATATCTACATATAT [XGTACX_site7978] | 9.91
24 | TTGAAATGCATGAACACACACAGCTATAAATGCATA [CACACA_site968] | 10.2
25 | AAAATATTATCTAATTGTACTTATATAACTATATAT [XGTACX_site5699] | 9.73
26 | ATACTAAGGAGAAAAGAAAAGTGAATTTATTCTATA [CACACA_negctrl_site1792] | 9.4
27 | AAATTTATGAACCTAGTGCAGAAATTAAAAAGATGA [GTGCAC_site9396] | 9.54
28 | TTATTAACCTAAATTAGTACATATAATATAAAAAAT [XGTACX_site8661] | 9.53
29 | AGCTATGTATTCTACACACACATACACCCATATATA [CACACA_site5827] | 10.1
30 | AATATGTCATATATGTGTACATATGCACAGATATTA [XGTACX_site951] | 9.71
31 | TGAACTTTAAACCCTGAACACACACTAATACACCCA [CACACA_site7970] | 10.6
32 | ATAAAAAGAAATCCAATACACACCTTCAAAATGGGT [CACACA_site1622] | 10.1
33 | ATTCAATATTTATACACACACACTTTTAATAATTAA [CACACA_site7725] | 10.2
34 | ATATATATAATAAATACACACATTTATATAGATAAA [CACACA_site3254] | 9.83
35 | TCATTCAGTTTTATCACACACAATCAAACATATATA [CACACA_site2742] | 9.87
36 | AAACATTTATCAATGAATCTTTTAATAAGTGTAAAG [XGTACX_negctrl_site80] | 9.46
37 | TATTTTTTTAGATATACATGCAAAAACAGAAGAAAT [TGCATGCA_site283] | 9.54
38 | AATATAAGGATATATACACACATAAATACATACATA [CACACA_site7859] | 9.99
39 | TCAACATTCATTGGAAGTACTCACTCCCATATAATA [XGTACX_site5211] | 9.46
40 | TATATATATATATTCACACATATAGTATTGTATTTA [CACACA_site5147] | 9.72
41 | TATATTTTATATTAGTGTACAAATTTCATTTTTCAT [XGTACX_site2204] | 9.62
42 | AATATATATAAAAAAGTGCATTAGGATAACCATATA [GTGCAC_site9590] | 9.91
43 | GGTATACATAATACTTGTACTAGGCAACAATAAGAT [XGTACX_site1437] | 9.75
44 | AAGAAGAAAAACCATTGTACGAACTAACATATATAA [XGTACX_site3226] | 9.77

Row | Sequence | gcPBM binding intensity (ln)
45 | TGTTAAAAGAAAAAAAGTACAAAAAATTATACATTT [XGTACX_site467] | 9.45
46 | ATATATTTATATTTGTGTACATATTTATTATATTTA [XGTACX_site404] | 9.86
47 | AATATGAATATCTATACACACACATATATATACACA [CACACA_site8459] | 10.1
48 | ATTTGTGACCACACAAATAAATAAATAAAAAAAAAA [TGCATGCA_negctrl_site328] | 9.57
49 | TAATAATAGAAACACACACACATTTTTAATAATACA [CACACA_site1216] | 10.9
50 | TTTTATTTTTATAACAGTACATAAGTAATTGTTCAA [XGTACX_site7574] | 9.42
51 | TTATAATAAAAAAATTCCTAAGTCCGTATATATTAT [CACACA_negctrl_site1698] | 9.45
52 | TTTTATCATCACATTTGTCAAAAAAAAAAAAAAAAA [CACACA_negctrl_site1296] | 9.11
53 | ATATCAAACTAGAATGTGCGCATGCATTCAAGTTTT | 9.56
54 | TTATGTTCATTATATGCACACATATATATAAATGTA [CACACA_site8947] | 9.65
55 | GATTTTATAATTTCTACACACATATAAGAATATTCA [CACACA_site2802] | 9.7
56 | AAAAAAAATTTCTCAAGTACACAATTTTTTTTTGTT [XGTACX_site5874] | 9.51
57 | TTTTTTTAAATATATAAGATAAATTTATAAATAAAT [XGTACX_negctrl_site282] | 9.12
58 | TTCAATTTTTTAAAGCGTACATATAAAAGTTATATG [XGTACX_site731] | 9.26
59 | AATCATTTGTTATAAGTCTAAAATTATTAGAATATT [XGTACX_negctrl_site151] | 9.56
60 | ATTATTACATATAATGCATGTGCATATATTTTTATA [TGCATGCA_site701] | 9.69
61 | AAATTTGGATGACTCAATAAATTATAATATATATAT [CACACA_negctrl_site298] | 9.49
62 | ATATTCTTTATATGCATACACACCTAATATAGGGAC [CACACA_site1533] | 9.72
63 | ATATATATACTGTGTACACAAATATATATTATATAT [CACACA_site6104] | 9.76
64 | AAAAATAAAAAAAGCACACACATATAAATAAATATA [CACACA_site6968] | 10.2
65 | TAATTTTTCTTTTATTAACACACATATAAATAAATA [CACACA_site8935] | 9.46
66 | CCCAATAATTAAACAACACACATATTTATAGGTAAT [CACACA_site7445] | 10

Row | Sequence | gcPBM binding intensity (ln)
67 | ATATATTTATATATTACACACAATATTGTAGACATA [CACACA_site4669] | 9.74
68 | TATATGACAAGATAAAGTACAAATTTGTATATATAT [XGTACX_site3027] | 9.88
69 | TTTACACGTACGTGTACACACAAAAATATGTTTTTA [CACACA_site995] | 9.74
70 | AAATTCCACGGACACACACACATATAAATAAATAAA [CACACA_site4811] | 10.4
71 | TGTAGTCTGGAGAAAAGTACATAGTATCTGGTAGCT [XGTACX_site2031] | 9.64
72 | GAAAGAAATAAAGGTGGTACATAAATAAAAACTAAG [XGTACX_site4826] | 9.71
73 | ATTTATATGGTTTGCACACATAACAACTATGGTTAT [CACACA_site3632] | 10.2
74 | AACATAAAAAAAATATGTACATATATAATATATATA [XGTACX_site3764] | 9.78
75 | TAAAATAAAAAGTTTACACACATATATAATTTTAAT [CACACA_site662] | 9.74
76 | AACCATTTTAAATATGCACACAGATGCACTAACACA [CACACA_site8565] | 9.9
77 | GAATTATATAATTAAAGTACATTGTTTATATAATCA [XGTACX_site7246] | 9.55
78 | CATCCATATAAAATATGTACATATATATATATATAT [XGTACX_site5859] | 9.72
79 | TCCTTTCAACCATATATAATGACATGTACTCAAAAA [GTGCAC_negctrl_site417] | 9.39
80 | TATTTTAGTAAAGGTGGTACTTTTAAGTTCATGTAT [XGTACX_site1854] | 9.6
81 | AAAAAAAAAGAAAAATGTACATACATAAATATATAT [XGTACX_site5664] | 9.75
82 | ATTATAAACCATAATTAACACACAAAATAAGTTACA [CACACA_site9057] | 9.9
83 | AAAAAAAAAAAAAAAAGTACACAAATAGATTTATAT [XGTACX_site3727] | 9.53
84 | ATTCTATTTTTTATAAAACCATGTCATCAACATAGG [CACACA_negctrl_site237] | 9.47
85 | TCGTGAGAAAATATTACACACATTTACTATAGTATC [CACACA_site3444] | 10
86 | TTTTTTAAAGATTACTCAAAAAAATAAAAAAATAAA [GTGCAC_negctrl_site222] | 9.23
87 | TGAGTTCAACAAAGACGTACAAAACCAAAAATATAA [XGTACX_site8931] | 9.67
88 | TTTTTTTTTTTTTTTTGATACATTAACCTACAATGG [GTGCAC_negctrl_site625] | 9.06
